These are literature values, as cited in article PMC11006913.

Substitutions are numbered along the chain they refer to. The list shows a part of the results.

Targets include ARX T333N (Homo sapiens) (UniProt Q96QS3); ISX (Homo sapiens) (UniProt Q2M1V0); ISX R83Q (Homo sapiens) (UniProt Q2M1V0); ARX P353L (Homo sapiens) (UniProt Q96QS3).
Holding throughout (conditions): PBM; conditions not shown; double strand, one strand shown; scale: upbm affinity estimate (log intensity, higher = more binding, comparable within an allelic series)
In series [1] the target is HOXD13 I297V (Homo sapiens) (UniProt P35453).
For series [2], the target named is HOXD13 I322L (Homo sapiens) (UniProt P35453).
The target of series [3] is HOXD13 N298S (Homo sapiens) (UniProt P35453).
Series [4] concerns the target HOXD13 Q325K (Homo sapiens) (UniProt P35453).
Series [5] addresses HOXD13 Q325R (Homo sapiens) (UniProt P35453).
Series [6] concerns the target HOXD13 R306W (Homo sapiens) (UniProt P35453).
Series [7] has as its target HOXD13 S316C (Homo sapiens) (UniProt P35453).
The target of series [8] is PITX2 L100Q (Homo sapiens) (UniProt Q99697).
The target in series [9] is PITX2 R108H (Homo sapiens) (UniProt Q99697).
The target of series [10] is PITX2 R130W (Homo sapiens) (UniProt Q99697).
Series [11] has as its target PITX2 T114P (Homo sapiens) (UniProt Q99697).
In series [12] the target is T1, HESX1 E149K (Homo sapiens) (UniProt Q9UBX0).
T1 sequence: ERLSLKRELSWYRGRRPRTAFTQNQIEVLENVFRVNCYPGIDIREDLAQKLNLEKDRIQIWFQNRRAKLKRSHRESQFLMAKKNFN

In series [13] the target is T2, HESX1 N125S (Homo sapiens) (UniProt Q9UBX0).
T2 sequence: T1 sequence with N31S, K55E

For series [14], the target named is T3, HESX1 R160C (Homo sapiens) (UniProt Q9UBX0).
T3 sequence: T1 sequence with K55E, R66C

Series [15] deals with PROP1 R112Q (Homo sapiens) (UniProt O75360).
Series [16] has as its target PROP1 R99Q (Homo sapiens) (UniProt O75360).

For ATTAATAA [8-mer ATTAATAA], the binding signal with ARX T333N (Homo sapiens) is 11.9; in [1], 12.5; in series [2], 11.5; in [3] it was 12.6; in series [4] it was 11.9; in series [5], 12.1. Besides, the binding signal in series [6] was 11.8; in series [7], 12.3; with ISX (Homo sapiens), 14.6; in the series with ISX R83Q (Homo sapiens), 13.3; in series [8], 10.6; in [9], 9.37. For the same sequence, the binding signal in series [10] is 8.95; in series [11], 9.29.
As to CCATATTA [8-mer CCATATTA], the binding signal was 10.7 in series [12] and 9.32 in series [13].
For ACTAATCA [8-mer ACTAATCA], the values for the binding signal in the series with ARX P353L (Homo sapiens), with ISX (Homo sapiens) and with ISX R83Q (Homo sapiens) were 12.2, 14 and 12.3, respectively.
TATTAATA [8-mer TATTAATA]: the binding signal in the series with ARX T333N (Homo sapiens) was 11.8; in [1] it was 12.6; in series [2], 11.8; in [3], 12.9; in series [4] it was 12.3; in series [5], 12.5. Further, the binding signal in series [6] was 12.2; in [7], 12.4.
As to CGTGGCGC [8-mer CGTGGCGC], the binding signal was 9.91 in series [12], 7.49 in series [13] and 9.99 in series [14].
AATAATTG [8-mer AATAATTG]: the binding signal with ARX T333N (Homo sapiens) was 11.8; in [12], 11.6; in series [13], 11.9; in series [14], 10.4; with ISX (Homo sapiens) it was 14.7; in the series with ISX R83Q (Homo sapiens), 13.2. The binding signal in series [15] is 12.7; in series [16], 12.1.
Consider ACGGTGCC [8-mer ACGGTGCC], for which the figures for the binding signal in [12], in series [13] and in series [14] were 10, 7.66 and 10, respectively.
For CCTCGTTA [8-mer CCTCGTTA], the figures for the binding signal (in the series with ARX P353L (Homo sapiens); in [2]) were 11.7 and 12.1, respectively.
Take AATTATGC [8-mer AATTATGC]: in series [12], the binding signal was 11.3.
As to CCCTAAGG [8-mer CCCTAAGG], the values for the binding signal in series [12], in [13] and in series [14] were 9.87, 7.67 and 10, respectively.
For GCACATTA [8-mer GCACATTA], the figures for the binding signal in series [12] and in series [13] were 10.6 and 9.02, respectively.
Consider CTCGTTAC [8-mer CTCGTTAC], for which the values for the binding signal (with ARX P353L (Homo sapiens); in series [2]) were 11.5 and 11.8, respectively.
Turning to AATTAAAC [8-mer AATTAAAC], the binding signal with ARX T333N (Homo sapiens) was 11.8; with ISX R83Q (Homo sapiens), 13.4.
Turning to ATATTACC [8-mer ATATTACC], the figures for the binding signal in series [12] and in [13] were 10.8 and 9.21, respectively.
On to ATAACGAG [8-mer ATAACGAG], for which the values for the binding signal (in the series with ARX P353L (Homo sapiens); in [2]) were 11.6 and 12, respectively.
Consider ATTAATTC [8-mer ATTAATTC], for which the binding signal with ARX T333N (Homo sapiens) is 11.9; in series [9] it was 9.4; in [11], 9.45; in [15], 12.6.
Consider AATTAGAC [8-mer AATTAGAC], for which the values for the binding signal with ARX P353L (Homo sapiens) and with ISX R83Q (Homo sapiens) were 12.2 and 13.3, respectively.
